# Laboratory results as given in the antibiotic and cytotoxicity screens of Wong et al. (2023).
# Some of the results follow.
# Tested on: HepG2
# Test: cytotoxicity call (relative viability < 0.9)
# Details: 10 µM
row,Compound,cytotoxicity call
1,C[C@H](CO)N1C[C@H](C)[C@H](CN(C)Cc2ccccc2)Oc2ccc(NC(=O)Nc3ccc(C(F)(F)F)cc3)cc2C1=O,active
2,C[C@@H]1CN([C@H](C)CO)C(=O)c2cc(NS(=O)(=O)c3ccc(F)cc3)ccc2O[C@@H](C)CCCCO[C@@H]1CN(C)S(=O)(=O)c1cn(C)cn1,inactive
3,C[C@@H]1CN([C@@H](C)CO)C(=O)c2cc(-c3ccc(F)cc3)cnc2O[C@@H]1CN(C)C(=O)Cc1ccccn1,inactive
4,Cc1ccccc1S(=O)(=O)N1C[C@H](O)COC[C@H]2O[C@H](CC(=O)NCCc3ccncc3)CC[C@@H]21,inactive
5,OCc1cnccn1,inactive
6,CC(=O)N1CCC2(CC1)NC(=O)NC2=O,inactive
7,COc1ccc(C#Cc2ccc([C@@H]3[C@@H](CO)N4CCCCN(S(=O)(=O)c5cn(C)cn5)C[C@@H]34)cc2)cc1,inactive
8,C[C@@H]1CN([C@@H](C)CO)C(=O)Cc2cc(NS(=O)(=O)c3cn(C)cn3)ccc2O[C@H]1CN(C)C,inactive
9,Cc1ccc(N(CC(=O)O)S(C)(=O)=O)cc1,inactive
10,O=C(N[C@H](c1ccc(F)cc1)c1ccc2ccccc2n1)C1CCN(Cc2ccc(Oc3ccccc3)cc2)CC1,active
11,O=C(C1=C[C@@H](c2coc3ccccc3c2=O)C[C@@H](OCCCCO)O1)N1CCN(Cc2ccc3c(c2)OCO3)CC1,inactive
12,C[C@@H]1CN([C@H](C)CO)C(=O)Cc2cc(NC(=O)Nc3cccc4ccccc34)ccc2O[C@@H]1CN(C)C(=O)Nc1cccc2ccccc12,inactive
13,C[C@@H]1CN([C@H](C)CO)C(=O)c2cc(NC(=O)Nc3cccc4ccccc34)ccc2O[C@@H]1CN(C)C(=O)Nc1ccccc1,inactive
